# Experimental data from the supplement of paper PMC8512760.
# Structures can show the parent of a compound that is named as a salt. Some of the results follow. Repeats are few or missing, and single values can be far off.
# System: SUM-149
# Test: cell viability relative to vehicle (% of vehicle); basal-like triple-negative breast cancer lines; higher = less cytotoxic
# Conditions: 10 µM; 72 h
# 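Also: stably firefly luciferase-GFP labeled cells in 96-well plates, viability read as luciferase photon flux after d-luciferin addition, treated wells normalized to vehicle wells, single-dose high-throughput screen.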
row,SMILES,cell viability
1,C[N+]1(C)CCCC(OC(=O)C(O)(c2ccccc2)c2ccccc2)C1.[Br-] (stereo not drawn) [Mepenzolate Bromide],109
2,OC(c1ccccc1)(c1ccccc1)C1CCNCC1 [Azacyclonol],123
3,CCC1(c2cccc(O)c2)CCCCN(C)C1.Cl (stereo not drawn) [Meptazinol HCl],94.7
4,O=S(=O)(F)Cc1ccccc1,87.3
5,Br.CN1C2CC(OC(=O)C(CO)c3ccccc3)CC1C1OC12 (stereo not drawn) [Scopolamine hydrobromide],88.6
6,CC(C)c1c(CN(C)C(C)Cc2ccccc2)n(C)n(-c2ccccc2)c1=O (stereo not drawn) [Famprofazone],100
7,O=C1CCC2(O)C3Cc4ccc(O)c5c4C2(CCN3CC2CC2)C1O5 (stereo not drawn) [Naltrexone],126
8,Cc1cc(O)ccc1Cl [Chlorocresol],78.5
9,CN1[C@@H]2C[C@@H](O)C[C@H]1[C@@H]1O[C@@H]12 [Scopine],140
10,CCC1(C)CC(=O)NC(=O)C1 [Bemegride],106
11,Cc1cccc(C(C)c2cnc[nH]2)c1C.Cl (stereo not drawn) [Dexmedetomidine HCl],101
12,CC12CCC3C(CC=C4CC(O)CCC43C)C1CCC2=O (stereo not drawn) [Dehydroepiandrosterone (DHEA)],129
13,CN1C2CCC1CC(OC(=O)C(CO)c1ccccc1)C2 (stereo not drawn) [Hyoscyamine],121
14,Cc1cccc(C)c1NC(=O)CN1CCCC1=O [Nefiracetam],116
15,CCOC(=O)c1cncn1C(C)c1ccccc1.Cl (stereo not drawn) [Etomidate hydrochloride],104
16,Br.COC(=O)C1=CCCN(C)C1 [Arecoline hydrobromide],104
17,CCCC[N+]1(C)[C@@H]2C[C@@H](OC(=O)[C@H](CO)c3ccccc3)C[C@H]1[C@@H]1O[C@@H]12 (stereo partly drawn) [Scopolamine butylbromide],117

row,SMILES,cell viability
1,C[N+](C)(C)CCCCCCCCCC[N+](C)(C)C.[Br-].[Br-] [Decamethonium Bromide],102
2,CN(C)C1C(=O)C(C(N)=O)=C(O)C2(O)C(=O)C3=C(O)c4c(O)cccc4C(C)(O)C3C(O)C12.O.O (stereo not drawn) [Oxytetracycline Dihydrate],107
3,Cl.NCC1(CC(=O)O)CCCCC1 [Gabapentin HCl],85.7
4,CCCCCCCCCCCCCCCC[N+](C)(C)C.[Br-] [Cetrimonium Bromide (CTAB)],20
5,Cn1c(COP(=O)(NCCBr)NCCBr)cnc1[N+](=O)[O-],78.6
6,CC(C)OC(=O)[C@H](C)N[P@](=O)(CO[C@H](C)Cn1cnc2c(N)ncnc21)Oc1ccccc1,147
7,O=P1(NCCCl)OCCCN1CCCl (stereo not drawn) [Ifosfamide],103
8,Cc1c(N)nc(C(CC(N)=O)NCC(N)C(N)=O)nc1C(=O)NC(C(=O)NC(C)C(O)C(C)C(=O)NC(C(=O)NCCc1nc(-c2nc(C(=O)NCCC[S+](C)C)cs2)cs1)C(C)O)C(O[C@@H]1O[C@@H](CO)[C@@H](O)[C@H](O)[C@@H]1O[C@H]1O[C@H](CO)[C@@H](O)[C@H](OC(N)=O)[C@@H]1O)c1cnc[nH]1 (stereo partly drawn) [Bleomycin Sulfate],72.2
9,CCC[C@H](C)[C@@]1(CC)C(=O)N=C([O-])NC1=O.[Na+] [Pentobarbital sodium salt],97.5
10,CN(C)C(=O)C(CCN1CCC(O)(c2ccc(Cl)cc2)CC1)(c1ccccc1)c1ccccc1.Cl [Loperamide HCl],88.9
11,CC(C)N(CCNC(=O)CN1CCCC1=O)C(C)C [Pramiracetam],117
12,CC12CC(=CO)C(=O)CC1CCC1C2CCC2(C)C1CCC2(C)O (stereo not drawn) [Oxymetholone],81.8
13,CN(C)C1C(=O)C(C(N)=O)=C(O)C2(O)C(=O)C3=C(O)c4c(O)cccc4C(C)(O)C3C(O)C12 (stereo not drawn) [Oxytetracycline (Terramycin)],111
14,O=c1cccc2n1C[C@@H]1CNC[C@H]2C1 [Cytisine],102
15,C[N+](C)(C)CC(=O)O.[Cl-] [Betaine hydrochloride],98.9
16,C#CC1(O)C=CC2C3CCC4=CC(=O)CCC4C3CCC21CC (stereo not drawn) [Gestodene],103
